Results on one molecule are retold here after US7994281 (EUROPEAN MOLECULAR BIOLOGY LABORATORY, dated 2011).

The target in the test is T1, wild-type TRAIL (aa 114-281), human soluble TRAIL (human, UniProt P50591 114-281).
T1 construct: homotrimer; also called Wt TRAIL; wt
In words: SPR, Biacore 3000, 37 C, receptor on chip, 1:1 Langmuir global fit, preliminary apparent Kd. On the procedure:
Binding of the purified mutants was assessed in real time using surface plasmon resonance on a Biacore 3000 with a sensor chip as described above. […] Measurements performed at 37° C. to allow increased $koff$ and dissociation was monitored for 20 min. Measured $kon$ and $koff$ rates were used to calculate apparent K_d values for the mutants for the respective receptors. A global fit procedure was used and a 1:1 Langmuir interaction model.
A general note: SPR reads the build-up and loss of mass on a sensor chip optically.

B1: DR5 (TRAIL-R2) Fc, recombinant receptor from R&D Systems (Fc fusion)
chain: not shown
notes: also called soluble TRAIL-R2 Fc; immobilized TRAIL-R2 Fc; not shown: Fc part of the bought Fc fusion
As for B1, the Kd was found to be 0.4 nM.
